From publication PMC8898372
No constants are given. Whether binding was seen depends on the method and setting. Binding seen in cells or lysates may run through a third protein. Some results given as binding are weak or reduced against the parent protein; the word gives no strength.

Amino acid sequences for entries named in this document (tags omitted). A change or cut given only in a name is not applied to a line headed by its entry.
UniProt A6NGE4: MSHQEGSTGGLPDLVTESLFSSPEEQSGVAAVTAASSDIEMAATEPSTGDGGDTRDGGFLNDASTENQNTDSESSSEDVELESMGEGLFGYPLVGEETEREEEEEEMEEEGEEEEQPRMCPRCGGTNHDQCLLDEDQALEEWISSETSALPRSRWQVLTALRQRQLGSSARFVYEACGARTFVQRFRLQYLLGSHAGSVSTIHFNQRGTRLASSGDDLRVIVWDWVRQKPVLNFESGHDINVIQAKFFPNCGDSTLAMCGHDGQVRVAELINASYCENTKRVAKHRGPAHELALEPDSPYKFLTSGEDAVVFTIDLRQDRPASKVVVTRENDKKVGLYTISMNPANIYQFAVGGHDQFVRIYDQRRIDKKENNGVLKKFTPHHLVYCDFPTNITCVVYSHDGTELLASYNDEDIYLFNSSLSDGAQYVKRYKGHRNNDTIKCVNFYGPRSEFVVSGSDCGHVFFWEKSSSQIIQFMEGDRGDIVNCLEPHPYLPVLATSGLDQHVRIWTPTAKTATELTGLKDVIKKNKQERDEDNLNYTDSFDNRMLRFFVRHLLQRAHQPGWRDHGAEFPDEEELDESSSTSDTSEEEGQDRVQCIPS
UniProt Q99728: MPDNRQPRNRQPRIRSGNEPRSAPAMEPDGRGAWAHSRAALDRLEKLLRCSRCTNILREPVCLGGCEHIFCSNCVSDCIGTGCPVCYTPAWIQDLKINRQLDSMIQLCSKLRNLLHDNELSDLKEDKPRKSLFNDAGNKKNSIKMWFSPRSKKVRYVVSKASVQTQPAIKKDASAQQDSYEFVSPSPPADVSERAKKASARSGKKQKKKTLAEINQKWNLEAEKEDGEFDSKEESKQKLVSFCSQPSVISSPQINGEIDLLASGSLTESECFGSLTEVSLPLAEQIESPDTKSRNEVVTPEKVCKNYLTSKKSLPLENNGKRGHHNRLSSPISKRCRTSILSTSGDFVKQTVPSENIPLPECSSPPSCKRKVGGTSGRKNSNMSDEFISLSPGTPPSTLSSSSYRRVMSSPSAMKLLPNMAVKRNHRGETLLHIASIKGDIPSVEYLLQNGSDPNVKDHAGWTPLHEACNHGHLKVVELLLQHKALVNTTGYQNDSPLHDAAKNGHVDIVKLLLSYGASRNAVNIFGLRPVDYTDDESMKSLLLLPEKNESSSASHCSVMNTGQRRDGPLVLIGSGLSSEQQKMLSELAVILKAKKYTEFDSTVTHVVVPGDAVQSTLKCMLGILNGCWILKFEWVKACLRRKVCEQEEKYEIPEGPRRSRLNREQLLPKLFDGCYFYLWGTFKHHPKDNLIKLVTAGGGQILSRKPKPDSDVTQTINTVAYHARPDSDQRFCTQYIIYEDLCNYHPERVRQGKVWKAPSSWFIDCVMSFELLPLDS
UniProt P38398: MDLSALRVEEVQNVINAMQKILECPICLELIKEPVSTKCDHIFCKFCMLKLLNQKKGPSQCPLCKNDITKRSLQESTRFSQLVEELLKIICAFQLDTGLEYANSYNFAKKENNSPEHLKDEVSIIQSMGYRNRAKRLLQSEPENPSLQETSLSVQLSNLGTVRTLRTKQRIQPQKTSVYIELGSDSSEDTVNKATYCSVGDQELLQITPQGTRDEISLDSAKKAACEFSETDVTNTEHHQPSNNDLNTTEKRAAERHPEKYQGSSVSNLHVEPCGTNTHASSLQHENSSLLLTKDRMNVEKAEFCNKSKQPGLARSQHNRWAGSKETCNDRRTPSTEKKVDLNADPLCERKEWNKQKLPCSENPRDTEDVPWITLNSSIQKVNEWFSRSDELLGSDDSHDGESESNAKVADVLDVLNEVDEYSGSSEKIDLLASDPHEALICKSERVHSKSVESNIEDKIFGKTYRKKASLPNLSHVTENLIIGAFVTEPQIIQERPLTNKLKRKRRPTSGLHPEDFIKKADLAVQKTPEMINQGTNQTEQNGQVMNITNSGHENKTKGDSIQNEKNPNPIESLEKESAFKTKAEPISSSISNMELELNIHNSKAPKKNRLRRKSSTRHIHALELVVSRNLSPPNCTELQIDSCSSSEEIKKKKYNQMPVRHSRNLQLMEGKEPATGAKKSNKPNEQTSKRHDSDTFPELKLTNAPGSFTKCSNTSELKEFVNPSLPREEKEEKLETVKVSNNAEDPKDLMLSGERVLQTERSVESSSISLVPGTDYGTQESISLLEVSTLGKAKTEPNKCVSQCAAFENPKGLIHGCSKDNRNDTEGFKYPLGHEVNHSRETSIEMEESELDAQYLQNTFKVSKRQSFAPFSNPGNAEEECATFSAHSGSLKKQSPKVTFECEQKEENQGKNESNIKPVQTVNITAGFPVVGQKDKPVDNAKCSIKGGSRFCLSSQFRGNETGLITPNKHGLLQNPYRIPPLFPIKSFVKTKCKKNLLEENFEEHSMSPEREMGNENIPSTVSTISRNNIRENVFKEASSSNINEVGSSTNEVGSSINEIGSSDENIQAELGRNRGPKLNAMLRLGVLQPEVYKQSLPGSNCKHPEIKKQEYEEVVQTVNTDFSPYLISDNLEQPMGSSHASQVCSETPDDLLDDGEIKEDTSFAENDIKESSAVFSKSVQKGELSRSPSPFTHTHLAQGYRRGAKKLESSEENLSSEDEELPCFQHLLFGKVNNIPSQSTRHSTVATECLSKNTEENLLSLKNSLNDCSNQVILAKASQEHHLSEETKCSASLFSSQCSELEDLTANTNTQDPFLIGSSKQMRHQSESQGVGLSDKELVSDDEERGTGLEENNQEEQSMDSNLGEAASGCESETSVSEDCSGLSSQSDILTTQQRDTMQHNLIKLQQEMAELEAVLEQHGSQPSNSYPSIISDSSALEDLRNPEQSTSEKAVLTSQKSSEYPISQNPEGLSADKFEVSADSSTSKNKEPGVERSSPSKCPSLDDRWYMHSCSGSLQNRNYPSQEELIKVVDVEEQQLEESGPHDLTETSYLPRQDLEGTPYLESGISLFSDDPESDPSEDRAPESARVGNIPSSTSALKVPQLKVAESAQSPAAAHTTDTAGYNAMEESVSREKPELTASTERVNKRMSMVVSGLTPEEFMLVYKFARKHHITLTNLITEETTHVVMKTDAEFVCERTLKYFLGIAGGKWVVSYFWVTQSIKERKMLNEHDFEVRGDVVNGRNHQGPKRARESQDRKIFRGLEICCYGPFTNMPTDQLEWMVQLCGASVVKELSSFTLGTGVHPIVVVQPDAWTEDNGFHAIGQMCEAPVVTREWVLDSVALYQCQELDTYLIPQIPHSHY
UniProt Q16531: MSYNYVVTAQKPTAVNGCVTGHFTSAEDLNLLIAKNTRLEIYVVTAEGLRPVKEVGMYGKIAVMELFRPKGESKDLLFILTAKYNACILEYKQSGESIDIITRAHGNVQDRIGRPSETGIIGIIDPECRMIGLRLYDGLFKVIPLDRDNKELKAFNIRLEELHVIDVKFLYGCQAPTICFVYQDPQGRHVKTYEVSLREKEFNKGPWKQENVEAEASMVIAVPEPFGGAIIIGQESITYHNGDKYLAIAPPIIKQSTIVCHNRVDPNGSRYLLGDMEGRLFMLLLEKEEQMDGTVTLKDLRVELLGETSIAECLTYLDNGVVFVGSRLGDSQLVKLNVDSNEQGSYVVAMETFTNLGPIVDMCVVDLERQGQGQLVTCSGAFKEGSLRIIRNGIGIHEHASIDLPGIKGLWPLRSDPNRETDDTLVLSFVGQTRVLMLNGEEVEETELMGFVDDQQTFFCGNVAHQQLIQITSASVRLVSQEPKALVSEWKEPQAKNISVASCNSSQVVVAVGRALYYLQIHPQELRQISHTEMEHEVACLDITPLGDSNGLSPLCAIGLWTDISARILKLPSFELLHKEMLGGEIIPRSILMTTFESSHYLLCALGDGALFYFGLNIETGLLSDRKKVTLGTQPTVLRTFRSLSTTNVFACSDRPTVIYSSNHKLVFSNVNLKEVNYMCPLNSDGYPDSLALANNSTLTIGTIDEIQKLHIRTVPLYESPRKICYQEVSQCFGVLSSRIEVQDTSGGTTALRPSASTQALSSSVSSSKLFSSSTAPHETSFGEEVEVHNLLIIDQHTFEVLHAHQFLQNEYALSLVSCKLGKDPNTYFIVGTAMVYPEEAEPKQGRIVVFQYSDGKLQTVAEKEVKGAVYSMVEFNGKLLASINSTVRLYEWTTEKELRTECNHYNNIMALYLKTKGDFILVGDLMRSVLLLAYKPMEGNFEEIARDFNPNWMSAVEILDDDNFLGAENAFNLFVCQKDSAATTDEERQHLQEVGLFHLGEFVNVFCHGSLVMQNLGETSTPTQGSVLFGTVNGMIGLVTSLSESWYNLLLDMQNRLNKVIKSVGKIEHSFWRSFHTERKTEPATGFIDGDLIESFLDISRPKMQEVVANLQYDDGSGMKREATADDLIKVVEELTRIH
UniProt Q13620: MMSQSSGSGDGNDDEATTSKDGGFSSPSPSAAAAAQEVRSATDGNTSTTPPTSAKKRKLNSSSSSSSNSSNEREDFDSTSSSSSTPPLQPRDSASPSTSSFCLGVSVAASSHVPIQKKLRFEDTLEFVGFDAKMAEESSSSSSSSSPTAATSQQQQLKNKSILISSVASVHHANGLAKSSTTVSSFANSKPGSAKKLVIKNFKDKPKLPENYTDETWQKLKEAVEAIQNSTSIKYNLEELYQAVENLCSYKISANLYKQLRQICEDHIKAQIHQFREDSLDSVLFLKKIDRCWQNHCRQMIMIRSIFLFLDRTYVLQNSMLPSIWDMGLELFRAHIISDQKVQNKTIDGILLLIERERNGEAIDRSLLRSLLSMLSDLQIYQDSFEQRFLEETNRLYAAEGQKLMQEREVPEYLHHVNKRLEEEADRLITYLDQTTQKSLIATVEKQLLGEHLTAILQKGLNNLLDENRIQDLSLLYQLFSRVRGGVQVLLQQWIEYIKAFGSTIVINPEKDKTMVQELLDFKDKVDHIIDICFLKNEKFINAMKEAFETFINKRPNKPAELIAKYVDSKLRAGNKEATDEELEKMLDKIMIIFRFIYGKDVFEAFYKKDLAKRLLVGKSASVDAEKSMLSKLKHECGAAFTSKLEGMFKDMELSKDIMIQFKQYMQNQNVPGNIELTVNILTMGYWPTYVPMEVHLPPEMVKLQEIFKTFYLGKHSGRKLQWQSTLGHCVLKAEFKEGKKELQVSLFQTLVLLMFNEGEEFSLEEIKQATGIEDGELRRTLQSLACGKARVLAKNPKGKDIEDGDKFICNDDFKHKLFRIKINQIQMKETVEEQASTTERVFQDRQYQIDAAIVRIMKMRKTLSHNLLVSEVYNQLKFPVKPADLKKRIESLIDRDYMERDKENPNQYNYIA
UniProt Q13619: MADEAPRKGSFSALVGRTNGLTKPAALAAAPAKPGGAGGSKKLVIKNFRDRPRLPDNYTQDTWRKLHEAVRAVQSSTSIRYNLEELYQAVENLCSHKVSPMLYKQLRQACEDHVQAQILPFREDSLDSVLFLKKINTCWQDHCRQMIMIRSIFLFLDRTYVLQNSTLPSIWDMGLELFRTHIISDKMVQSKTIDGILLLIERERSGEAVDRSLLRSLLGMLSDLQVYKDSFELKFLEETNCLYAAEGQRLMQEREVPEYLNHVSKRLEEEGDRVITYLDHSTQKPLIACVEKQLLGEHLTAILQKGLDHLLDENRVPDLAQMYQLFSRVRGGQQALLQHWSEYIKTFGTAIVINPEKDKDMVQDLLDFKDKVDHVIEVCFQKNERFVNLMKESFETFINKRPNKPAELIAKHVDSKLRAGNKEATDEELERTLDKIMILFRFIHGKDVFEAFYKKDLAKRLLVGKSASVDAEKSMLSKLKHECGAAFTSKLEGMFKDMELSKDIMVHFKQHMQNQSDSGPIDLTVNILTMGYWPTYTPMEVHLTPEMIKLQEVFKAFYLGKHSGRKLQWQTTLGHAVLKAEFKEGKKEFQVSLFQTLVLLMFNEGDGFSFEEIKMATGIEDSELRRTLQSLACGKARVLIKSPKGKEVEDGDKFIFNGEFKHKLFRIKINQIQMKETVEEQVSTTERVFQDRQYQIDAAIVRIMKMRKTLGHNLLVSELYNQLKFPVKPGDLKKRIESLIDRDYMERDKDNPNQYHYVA

Key:
[1] = target: DCAF8L1 (endogenous, HCC1954) (human (endogenous in HCC1954)) (UniProt A6NGE4); assay: co-IP; HCC1954 lysate, IP with control IgG or antibody against DCAF8L1 (D8L1-519) on Protein G agarose; 150 mM NaCl; immunoblot
[2] = target: Flag-HA-DCAF8L1 (wild type) (human) (UniProt A6NGE4); assay: co-IP; lysates of 293T cells expressing control or FH-D8L1, anti-FLAG M2 agarose; lysis in NETN-400, diluted to 150 mM NaCl, washed with NETN-150; immunoblot
[3] = target: DCAF8L1 mutant (R317H, R365H, MT) (human) (UniProt A6NGE4); assay: co-IP; DCAF8L1 wild type (WT) and mutant (MT) pulled down and analysed by immunoblot; cells and resin not stated
[4] = target: BARD1 (endogenous, HCC1954) (human (endogenous in HCC1954)) (UniProt Q99728); assay: co-IP; HCC1954 lysate, IP with control IgG or antibody against BARD1 or BRCA1 on Protein G agarose; 150 mM NaCl; immunoblot for DCAF8L1
[5] = target: BRCA1 (endogenous, HCC1954) (human (endogenous in HCC1954)) (UniProt P38398); assay: as above

Substance	binding [1]	binding [2]	further results
DDB1 (endogenous, HCC1954) (from UniProt Q16531 1-1140)	binds		
CUL4B (endogenous, 293T) (from UniProt Q13620 1-913)		binds	
CUL4A (endogenous, 293T) (from UniProt Q13619 1-759)		binds	binding [3]: no binding
CUL4A (endogenous, HCC1954) (from UniProt Q13619 1-759)	binds		
DCAF8L1 (endogenous, HCC1954) (from UniProt A6NGE4 1-600)			binding [4]: binds; binding [5]: binds
CUL4B (endogenous, HCC1954) (from UniProt Q13620 1-913)	binds		
DDB1 (endogenous, 293T) (from UniProt Q16531 1-1140)		binds	binding [3]: no binding
